The values below come from PubChem BioAssay AID463173 (ICCB-Longwood Screening Facility, Harvard Medical School, 2010).

SMILES strings stand for the structures. About 1,700 (3.3%) of roughly 52,000 compounds were called active. No stated cut-off is given here; in the data, active means survival mostly below about 52% (no sharp cut-off); inactive means mostly above about 56%. This is one part of the list.

The assay deals with Wild type. Put plainly: growth inhibition of S. aureus wild type versus tarO mutant, primary screen, teichoic acid synthesis inhibitors, RN4220, OD600 (AID 463173). The conditions noted are these: S. aureus RN4220 wild type/DeltatarO growth, OD600, 18 h, active compounds read low, screened at 18.75 µg/mL (by protocol).
`COc1ccc(N2CCN(S(=O)(=O)CCNC(=O)c3c(F)cccc3Cl)CC2)cc1`: the survival was inactive: 80%. The same measure for `CC(=O)Nc1cc(C(=O)Nc2ccc3c(c2)N(C)C(=O)c2ccccc2S3)ccc1C`: inactive: 71%. The same measure for `Cc1ccccc1CN1C(=O)c2ccccc2S(=O)c2ccc(C(=O)NCc3ccc4c(c3)OCO4)cc21` (stereo unspecified): inactive: 87%. In the case of `COc1cccc(CNC(=O)CCC(=O)N2CC(C)Sc3ccccc32)c1` (stereo unspecified), the survival is inactive: 79%. For `COc1ccc(CNC(=O)C(=O)Nc2cc(Cl)ccc2OC)cc1` the value was inactive: 158%; for `Cc1ccc(S(=O)(=O)c2nnn3c2nc(N2CCC(C(N)=O)CC2)c2cc(Cl)ccc23)cc1C`, inactive: 77%. On to `Cc1ccc(NS(=O)(=O)c2c(C)nc3sc(C)cn3c2=O)c(C)c1`, for which the survival is inactive: 87%. With `COc1ccc2[nH]c(=O)c(CN(Cc3cccnc3)C(=O)Nc3ccccc3)cc2c1`, the survival was inactive: 93%.

For the molecule `Cc1nc2c(c(C)nn2C(C)(C)C)c(C)c1CCC(=O)Nc1ccc(Br)cc1Br`, the survival is inactive: 67%. For `CS(=O)(=O)N1CCC(C(=O)NCC2CCCO2)CC1` (stereo unspecified), the survival is inactive: 107%. On to `Cc1ccc(NC(=O)[C@@H](c2ccccc2)N2Cc3ccccc3C2=O)cc1F`, for which the survival is inactive: 36%. Regarding `CCC(=O)Nc1cc2nn(-c3ccc(C)cc3)nc2cc1C`, the survival is inactive: 73%. Consider `CCCc1nn2c(=O)cc(COC(=O)c3ccco3)nc2s1`, for which the survival is inactive: 73%. For `COc1ccc(CCNC(=O)Cn2c(=O)c3cccn3c3ccccc32)cc1OC` the value was inactive: 85%; for `COc1cccc(-c2noc(C3CCCN(C(=O)Cc4ccccc4)C3)n2)c1` (stereo unspecified), inactive: 113%; for `CCCCOc1ccccc1C1CC(=O)Nc2cc(OC)c(OC)cc21` (stereo unspecified), inactive: 80%. The same measure for `CC(=O)Nc1c(C)nn(-c2ccccc2)c1N1CCC(C(=O)Nc2cccc(C(F)(F)F)c2)CC1`: inactive: 64%; for `CCOC(=O)Cn1c(=O)n(CC2CCCO2)c2nc(-c3ccc(CC)cc3)nc(C(N)=O)c21` (stereo unspecified): inactive: 81%. With `O=C(CSc1ncc2c(n1)-c1ccc(Cl)cc1N(Cc1ccccc1)S2(=O)=O)Nc1ccccc1C(F)(F)F`, the survival is inactive: 82%. For `Cc1c(C(=O)NCc2ccc(F)cc2)sc2nc(-c3ccc(F)cc3)cn12` the value was inactive: 74%; for `CC1(C)Cc2nc(N)c(C#N)cc2CO1`, inactive: 109%; for `CCOc1ccc(NC(=O)CN2CCSc3ccc(S(=O)(=O)N4CCCC4)cc32)cc1`, inactive: 67%. As for `CCn1cc(S(=O)(=O)c2ccc(C)cc2C)c(=O)c2cc(F)c(N3CCCCC3)cc21`, the survival was inactive: 77%. For `COC(=O)c1c(NC(=O)/C=C/c2ccc(OC)c(OC)c2)sc2c1CCC2` the value was inactive: 76%; for `Cc1cc(C)cc(N(CC(=O)NCc2ccccc2Cl)S(=O)(=O)c2c(C)[nH]c(=O)[nH]c2=O)c1`, inactive: 132%. The same measure for `Cc1noc(Cn2c(=O)c3ccccc3n(CC(=O)Nc3ccc(C(C)C)cc3)c2=O)n1`: inactive: 115%. The same measure for `CN(C)C(=O)Cn1c(SCC(=O)NC2CCCCC2)nc2ccccc21`: inactive: 107%; for `CCN(CC)c1ccc(NC(=O)CN2C(=O)c3cccnc3Oc3ccc(Cl)cc32)c(C)c1`: inactive: 99%. In the case of `COCCNC(=O)CSc1nnc2[nH]c(=O)cc(C)n12`, the survival is inactive: 66%. Regarding `O=C(NCc1ccccc1)c1ccc2c(c1)nc1n2CCOC1`, the survival is inactive: 82%. For the molecule `CCN(CC)CCCNC(=O)CN1C(=O)COc2ccc(S(=O)(=O)N3CCC(C)CC3)cc21`, the survival was inactive: 79%.

Regarding `CC(Nc1oc(-c2ccc(COc3ccc(Cl)cc3)o2)nc1C#N)c1ccccc1` (stereo unspecified), the survival is inactive: 93%. For the molecule `CCc1ccccc1NS(=O)(=O)c1cc(Br)cc2c1N(C(=O)C1CC1)CC2`, the survival was inactive: 69%. The same measure for `CCc1cccc(NS(=O)(=O)c2cc(-c3cnc(C)o3)ccc2OC)c1`: inactive: 77%; for `CCOC(=O)Cn1c(=O)n(CC2CCCO2)c2nc(-c3c(F)cccc3Cl)nc(C(N)=O)c21` (stereo unspecified): inactive: 82%. For `COc1ccc(C(=O)Nc2nc3n(n2)C(c2ccc(F)cc2)C=C(c2ccc(Cl)cc2)N3)cc1` (stereo unspecified) the value was inactive: 73%; for `CCn1c(=O)c2sccc2n2c(CCCC(=O)Nc3ccc(OC)c(OC)c3)nnc12`, inactive: 99%; for `Cc1c(C(=O)N(C)C)sc2c1c(=O)n(-c1ccc(Cl)c(Cl)c1)c(=O)n2CC(=O)Nc1ccc(Br)cc1F`, inactive: 148%. In the case of `CCOC(=O)c1ccc(NC(=O)c2cc3c([nH]c2=O)CC(c2ccccc2)CC3=O)cc1` (stereo unspecified), the survival was inactive: 76%.

For `CC(c1ccccc1F)n1cc(C(=O)NCC2CCCO2)nn1` (stereo unspecified), the survival was inactive: 102%. Take `O=C(Nc1ccccc1)C1CCCN1C(=O)Nc1ccc(F)cc1` (stereo unspecified): the survival is inactive: 112%. The same measure for `COc1cccc(-c2n[nH]c3c2C(c2ccccn2)N(C)C3=O)c1` (stereo unspecified): inactive: 83%; for `O=C(CC1N=C2c3ccccc3N=C(SCC(=O)Nc3ccc(F)cc3)N2C1=O)NCc1ccc2c(c1)OCO2` (stereo unspecified): inactive: 80%. `Cc1cccc(NC(=O)Cn2cc(S(=O)(=O)Cc3ccccc3Cl)c3ccccc32)c1`: the survival was inactive: 83%. For `COc1ccc(-n2cc(-c3ccc4c(c3)OCO4)n(CC(=O)Nc3cccc(C)c3)c2=O)cc1` the value was inactive: 80%.

Take `CCCCC1CCC(CCCC(C)CCC(=O)O)CC1` (stereo unspecified): the survival is active: -5%. The same measure for `Cc1ccccc1Cn1c(SCc2ccc(C(=O)NCCc3ccccc3)cc2)nc2ccncc21`: inactive: 98%; for `Cc1cc(C)n(C(C)CC(=O)Nc2ccc(C)c(F)c2)n1` (stereo unspecified): inactive: 85%; for `CSc1ncc(Cl)c(C(=O)N(Cc2ccc(C(C)C)cc2)C2CCS(=O)(=O)C2)n1` (stereo unspecified): inactive: 81%. For `CC(C)CCNc1ncnc2c1cnn2-c1cccc(Cl)c1` the value was inactive: 101%.

For `Cc1ccccc1C(c1c(C)n(C)n(-c2ccccc2)c1=O)c1c(C)n(C)n(-c2ccccc2)c1=O`, the survival was inactive: 81%. The same measure for `O=C(Cc1ccc(Cl)cc1)Nc1ccc2nn(-c3ccccc3)nc2c1`: inactive: 95%; for `Cc1ccccc1OCc1nnc(SCC(=O)N(Cc2ccccc2)C(C)(C)C)o1`: inactive: 129%; for `O=C(Oc1c(Cl)cc(Cl)c2cccnc12)N1CCCCCC1`: inactive: 109%. The same measure for `Cc1ccc(-n2c(SCC(=O)Nc3c(C)cccc3C)nc(O)c(C)c2=O)cc1`: inactive: 70%; for `CCC1CN(C(=O)N2CCC(C(=O)NCc3ccco3)CC2)c2ccccc2O1` (stereo unspecified): inactive: 86%; for `COCCNC(=O)C(=O)NCC(c1cccnc1)N1CCN(c2ccccc2)CC1` (stereo unspecified): inactive: 82%.

For the molecule `CCOc1ccccc1NC(=O)CN1C(=O)C2(SCC(=O)N2c2ccc(C)cc2)c2ccccc21` (stereo unspecified), the survival is inactive: 74%. Turning to `CC(=O)c1cccc(NC(=O)N2CCC(CN3CCCCC3)CC2)c1`, the survival was inactive: 71%. Take `CC(C)c1ccc(NC(=O)Cn2c(=O)n(Cc3nc(-c4ccccc4)no3)c(=O)c3cc4c(cc32)OCO4)cc1`: the survival is inactive: 81%. Turning to `CCOc1ccc2c(c1)c(=O)c(C(=O)c1ccc(C)cc1)cn2Cc1ccccc1OC`, the survival was inactive: 88%. The same measure for `CCS(=O)(=O)c1ncc(Cl)c(C(=O)N(Cc2ccccc2)c2ccc(OC)cc2)n1`: inactive: 36%; for `Cc1ccc(-n2ncc3c(=O)n(Cc4ccccc4C)cnc32)cc1C`: inactive: 115%. Take `Cc1cc(C)c(CN2C(=O)c3ccccc3S(=O)(=O)c3ccc(C(=O)OCC4CCCO4)cc32)c(C)c1` (stereo unspecified): the survival was inactive: 68%. Turning to `CCCN(Cc1cccs1)C(=O)Nc1ccc(F)c(Cl)c1`, the survival is inactive: 84%. The same measure for `COc1cc(Cl)c(NC(=O)C(NS(=O)(=O)c2cccs2)C(C)C)c(OC)c1` (stereo unspecified): inactive: 71%. Take `Cc1ccc(Nc2nc3nonc3n3cnnc23)cc1Cl`: the survival is inactive: 88%. As for `COc1ccc(OC)c(Nc2c3c(nc4ccccc24)CCC3)c1`, the survival was inactive: 88%. `CCc1ccc(NC(=O)c2ccc(F)c(S(=O)(=O)NCCc3ccc(OC)c(OC)c3)c2)cc1`: the survival was inactive: 81%.

For `COc1cccc(Nc2sc(C(=O)c3ccc(Cl)cc3)c(N)c2C(=O)NCCc2ccc(OC)c(OC)c2)c1`, the survival is inactive: 75%. For `CS(=O)(=O)N1CCc2cc(C(=O)Nc3ccc(S(N)(=O)=O)cc3)ccc21` the value was inactive: 91%; for `O=C1c2ccccc2C(=O)N1c1ccccc1S(=O)C(F)(F)F` (stereo unspecified), inactive: 111%; for `Cc1cccc(C(=O)OCc2cc(=O)n3nc(-c4cccs4)sc3n2)c1`, inactive: 73%. For `CCCSc1nnc2n(-c3cccc(C)c3)c(=O)c3c4c(sc3n12)CCCC4` the value was active: 2%; for `Cc1ccc(C)c(NC(=O)Cn2c(=O)n(Cc3ccc4c(c3)OCO4)c(=O)c3ccccc32)c1`, inactive: 116%.

Turning to `CC(C)(C)OC(=O)N1CCC(c2c(C(=O)N3CCCCC3)cnn2-c2ccc(F)cc2F)CC1`, the survival was inactive: 63%. As to `Cn1c(Oc2ccccc2)nc2c1c(=O)n(Cc1ccc(Cl)cc1Cl)c(=O)n2C`, the survival is inactive: 82%. For `Cc1ccc(-n2ncc(C(=O)NCCCN3CCN(C)CC3)c2C2CCN(C(=O)OC(C)(C)C)CC2)c(C)c1` the value was inactive: 79%. The same measure for `Cc1cc(C)cc(OCC(=O)NCCN2CCOCC2)c1`: inactive: 109%; for `O=C(CCn1cnc2onc(-c3ccc(F)cc3)c2c1=O)N1CCN(c2ccccc2F)CC1`: active: -6%; for `COC(=O)c1ccccc1NC(=O)Cn1c(=O)cc(C)c2c(C)nn(-c3cccc(Cl)c3C)c21`: inactive: 88%.

On to `Cc1ccc2c(CC(=O)N(Cc3cccc(Cl)c3)C3CCS(=O)(=O)C3)coc2c1` (stereo unspecified), for which the survival is inactive: 56%. For `Cc1ccc(C(=O)CC2(O)C(=O)N(Cc3ccccc3)c3ccccc32)c(C)c1` (stereo unspecified) the value was inactive: 20%.

On to `CNS(=O)(=O)c1cn(CC(=O)N2CCN(c3ccccc3OC)CC2)cc1S(=O)(=O)NC`, for which the survival is inactive: 68%.

For `CCOC(=O)C1CCCN(C(=O)c2ccc(NC(=O)c3nsc4ccccc34)cc2)C1` (stereo unspecified), the survival is inactive: 57%.

Regarding `COc1ccc(Cl)cc1NC(=O)Cn1cnc2sc(C)c(S(=O)(=O)N3CCN(c4ccccc4OC)CC3)c2c1=O`, the survival was inactive: 71%.
